Data reported in PMC4336329 (PLoS ONE, 2015).
Out of some 310,000 compounds screened, about 14,000 (4.5%) showed an effect of 50% or more. Effects have a minus sign here. The list shows a part of the results.

target: human ether-à-go-go-related gene (hERG) potassium channel (human, UniProt Q12809); assay: primary screen, population patch clamp on CHO cells stably expressing hERG
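Note: peak tail current of the secondary pulse compared with the same well before compound.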

human ether-à-go-go-related gene (hERG) potassium channel, sequence (Q12809 whole entry, looked up): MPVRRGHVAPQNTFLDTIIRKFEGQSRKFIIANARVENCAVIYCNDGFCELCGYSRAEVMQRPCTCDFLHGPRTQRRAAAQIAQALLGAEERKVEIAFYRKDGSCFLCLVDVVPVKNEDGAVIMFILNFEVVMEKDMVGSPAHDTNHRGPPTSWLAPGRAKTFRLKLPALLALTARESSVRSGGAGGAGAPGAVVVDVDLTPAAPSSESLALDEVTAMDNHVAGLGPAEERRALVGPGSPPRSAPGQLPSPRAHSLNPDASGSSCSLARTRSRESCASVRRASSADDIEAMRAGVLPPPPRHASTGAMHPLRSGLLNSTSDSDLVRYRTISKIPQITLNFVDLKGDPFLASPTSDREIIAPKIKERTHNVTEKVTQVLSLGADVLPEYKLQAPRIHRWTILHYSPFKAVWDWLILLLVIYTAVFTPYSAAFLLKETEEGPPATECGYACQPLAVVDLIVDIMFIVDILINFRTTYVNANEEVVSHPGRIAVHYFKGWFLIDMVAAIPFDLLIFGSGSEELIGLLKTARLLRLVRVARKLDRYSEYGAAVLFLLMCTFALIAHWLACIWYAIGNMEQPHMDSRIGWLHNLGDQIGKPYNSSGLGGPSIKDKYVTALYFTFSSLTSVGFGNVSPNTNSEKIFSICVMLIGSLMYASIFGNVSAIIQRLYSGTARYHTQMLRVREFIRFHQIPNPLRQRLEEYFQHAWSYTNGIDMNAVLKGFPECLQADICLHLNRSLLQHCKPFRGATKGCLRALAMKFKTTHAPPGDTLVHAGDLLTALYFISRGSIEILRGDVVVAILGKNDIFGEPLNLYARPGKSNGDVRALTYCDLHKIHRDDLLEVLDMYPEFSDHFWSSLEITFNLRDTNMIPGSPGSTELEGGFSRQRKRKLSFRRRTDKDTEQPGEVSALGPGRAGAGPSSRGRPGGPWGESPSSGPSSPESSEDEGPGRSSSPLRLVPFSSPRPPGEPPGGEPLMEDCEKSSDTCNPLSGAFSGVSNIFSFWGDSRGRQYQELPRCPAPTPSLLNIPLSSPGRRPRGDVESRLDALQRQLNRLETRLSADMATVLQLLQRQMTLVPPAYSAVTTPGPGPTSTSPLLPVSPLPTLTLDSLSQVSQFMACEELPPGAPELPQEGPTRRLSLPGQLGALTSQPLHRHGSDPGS

Structure (SMILES) | hERG current change (%, negative = inhibition) at 10uM
CN(C)c1ccc(/C=C/c2cccc[n+]2[O-])cc1 | 19.7%
Cc1ccc(NC(=O)c2ccc(OCC3CCCO3)cc2)cc1 (centres unmarked) | -2.87%
C#CCOCCOCCOCCNc1nc(N2CCN(C(=O)Cn3cc(CCCC[NH3+])nn3)CC2)nc(N2CCN(C(=O)[C@H]([C@@H](C)CC)n3cc(CCCC[NH3+])nn3)CC2)n1.[Cl-] | 6.58%
Cc1occc1-c1nnc(SCC(=O)c2ccc(Cl)cc2)n1C | -20.3%
CCn1c(C)nnc1SCC(=O)Nc1ccccc1OC | 21.3%
Cc1ccc(-n2c(SCC(=O)Nc3cccc(S(=O)(=O)NC4=NCCCCC4)c3)nc3ccccc3c2=O)cc1 | -11.1%
COc1ccc(CSc2nnc(C)n2N)cc1[N+](=O)[O-] | 15.6%
Cc1cc(N2CCN(C(=O)c3ccco3)CC2)c2ccccc2n1 | -71.8%
COc1cc(C(=O)Nc2nnc(C(C)(C)C)s2)c([N+](=O)[O-])cc1OC | 6.64%
CCOC(=O)CC1(NC(=O)C2CCC(=O)N(CCc3ccccc3)C2)CCCCC1 (centres unmarked) | 19.5%
CN(Cc1ccccc1)C(=O)C1CCCN(c2ncnc3c2nc2n3CCCCC2)C1 (centres unmarked) | -66%
C/C(=N/NC(=O)CN1CCN(Cc2ccccc2)CC1)c1ccc([N+](=O)[O-])cc1 | -76.5%
O=c1sc2ccccc2c(=O)n1Cc1ccccc1F | 16.7%
CC(C)OCCCNC(=O)c1ccccc1Oc1ccccc1 | 0.195%
O=c1oc2ccc([N+](=O)[O-])cc2c(N2CCOCC2)c1[N+](=O)[O-] | 20.7%
Cc1nn(CC(=O)N2CCc3ccccc3C2)c(C)c1[N+](=O)[O-] | 24%
Cc1ccc(C)c(C(=O)CCC(=O)Nc2ccc(F)cc2)c1 | 14.8%
CCC(C)n1c(O)c(C=NCCN2CCOCC2)c(=O)[nH]c1=S (centres unmarked) | 13.5%
Cc1ccc(OCc2cc(C(=O)N3CCN(c4ccccc4)CC3)no2)cc1C | -0.317%
Cc1ccc(/C=N/NC(=O)c2nnn(-c3nonc3N)c2CSc2ccccc2)s1 | 20.7%
O=C(CSc1nnnn1-c1ccc(Cl)c(C(=O)O)c1)NC(c1ccccc1)c1ccccc1 | 19.8%
CC1CCCC(NC(=O)C2CCC(CNc3c(N4CCCC4)c(=O)c3=O)CC2)C1C (centres unmarked) | 1.97%

Structure (SMILES) | hERG current change (%, negative = inhibition) at 10uM
O=C(O)CNC(=O)/C(=C\c1cccc([N+](=O)[O-])c1)NC(=O)c1ccco1 | 15.7%
CC1CCCC(C)N1CCCNC(=O)c1cc2c(s1)-c1ccccc1OC2 (centres unmarked) | -69.9%
COc1cc(/C=N/N(C)c2ccccc2)ccc1O | 16.9%
COC(=O)C1=C(C)N(c2ccccc2)/C(=C/c2ccco2)C1=O | 27.8%
Cc1ccccc1NC(=O)c1cc(-c2ccccc2)n(CCCN2CCOCC2)c1C | -32.3%
CC(=O)N/C(=C\c1ccccc1)C(=O)OC(C)C(=O)N(C)c1ccccc1 (centres unmarked) | -2.47%
CCOc1cccc2cc(C(=O)Nc3nccs3)c(=O)oc12 | 9.58%
Nc1nc(-c2cccs2)c(-c2cccs2)s1 | 4.19%
Cc1ccc(OCCn2cc(/C(N)=N/O)c3ccccc32)cc1C | -7.06%
N#CCCN(C(=O)COc1ccc(Br)cc1F)c1ccc(F)cc1 | -25%
O=C1NC(=O)C(=C/C=C/c2coc3ccc(Br)cc3c2=O)C(=O)N1 | 2.76%
COc1cc(OC)cc(C(=O)NNC(=S)NC2CC2)c1 | 23.9%
COCCNC(=O)Cn1nc(C)c([N+](=O)[O-])c1C | -7.7%
CCCOc1ccc(-c2nn(-c3ccccc3)cc2/C=C2\SC(=S)N(C3CCS(=O)(=O)C3)C2=O)cc1 (centres unmarked) | 12%
CCOc1cc(C(=O)Nc2ncn[nH]2)cc(OCC)c1OCC | -2.12%
Cc1ccc(NC2=NC3(CCCC3)N=C(N)N2)c(C)c1 | 48.9%
CCOc1ccccc1NC(=S)N1CCN(c2ccc(O)cc2)CC1 | 8.51%
COc1ccc(C(C)=O)cc1Cn1c(=O)cc(C)[nH]c1=O | 13.2%
COc1ccccc1N1C(=NC(=O)C(C)Oc2ccccc2)SC2CS(=O)(=O)CC21 (centres unmarked) | -14.2%
O=C(COC(=O)c1ccc2c(c1)OCO2)Nc1ncc(Cl)cc1Cl | -8.15%
Fc1ccc(CN2CCN(c3ccc(Cl)cc3)CC2)cc1 | -13.6%
c1coc(CSCc2cn3cccnc3n2)c1 | 6.5%
